ChEMBL document CHEMBL4888484, “Replenishing the malaria drug discovery pipeline: Screening and hit evaluation of the MMV Hit Generation Library 1 (HGL1) against asexual blood stage Plasmodium falciparum ,using a nano luciferase reporter read-out” (2022)
Hit rate of the full screen: of about 150,000 compounds, about 540 (0.36%) showed an effect of 50% or more. The list shows a part of the results.

These molecules were tested on Plasmodium falciparum (assay: Primary screen in NF54 nanoGlo assay, in single point, at 2uM, 72h; a lower Z score goes with more inhibition). Settings: timepoint 72 hour.
Assay type: functional, Erythrocyte
For N#Cc1ccc(C(C(N)=O)N2CCC2c2ccc(Cl)cc2)cc1 (configuration not stated), the “% Inhibition” value was 1% and the Z score was -0.15.
With O=C(c1c[nH]nc1-c1ccccc1)N1CC(N2CCOCC2)C1 the “% Inhibition” value was 5% and the Z score was -1.09.
With CC(C)(CO)[C@H](CNC1Cc2ccccc2C1)c1ccccc1 the “% Inhibition” value was -3% and the Z score was 0.29.
In the case of Cc1ccc(-c2noc([C@@H]3C[C@@H](O)CN3)n2)cc1, the “% Inhibition” value was 1% and the Z score was -0.2.
Cc1nn(Cc2ccccc2)c(Cl)c1CN1CCC(NS(C)(=O)=O)CC1 was tested, and the “% Inhibition” value was -12% and the Z score was 1.18.
For CC1(C)C(=O)NCCN1C(=O)c1cc2cc(F)ccc2o1, the “% Inhibition” value was 12% and the Z score was -1.39.
For COCc1nsc(N2CCC3CCC(C2)N3Cc2ccccc2)n1 (configuration not stated), the “% Inhibition” value was -1% and the Z score was 0.11.
O=c1[nH]c(CCN2CCOc3ccccc32)nc2ccccc12 was tested, and the “% Inhibition” value was 34% and the Z score was -3.8.
With CCC(CC)C(=O)NCCCN1CCOCC1 the “% Inhibition” value was -4% and the Z score was 0.57.
c1cc(-c2ccc(-c3ccn[nH]3)cc2)cc(-n2cnnc2)c1 was tested, and the “% Inhibition” value was -18% and the Z score was 2.36.
In the case of Cc1ccc(C(=O)N2CCC(CC(=O)N3CCOCC3)CC2)c(O)c1, the “% Inhibition” value was -9% and the Z score was 1.48.
For CC(C)c1ocnc1C(=O)NS(=O)(=O)N1CCCCCCC1, the “% Inhibition” value was 3% and the Z score was -0.41.
For CC(C)c1ccc(NCc2cccnc2Oc2ccc(F)c(F)c2)nn1, the “% Inhibition” value was -8% and the Z score was 0.72.
For CC(C)(C)CNC1CCOCC1C1CCCN1C(=O)OC(C)(C)C (configuration not stated), the “% Inhibition” value was -7% and the Z score was 0.95.
With COC[C@H]1C[C@@H](NC(=O)c2ccc(OC)cc2)[C@H](O)[C@@H]1O the “% Inhibition” value was 4% and the Z score was -0.7.
For CC(=O)c1ccc(N2CCOCC2)c(-c2ccc3c(c2)OCCO3)c1, the “% Inhibition” value was -5% and the Z score was 0.86.
With COc1ccccc1C1(CNC(=O)c2snnc2C)CCOCC1 the “% Inhibition” value was -15% and the Z score was 1.66.
In the case of CN(CC(F)(F)F)C(=O)CN1CCOC2CCCC21 (configuration not stated), the “% Inhibition” value was -9% and the Z score was 1.18.
Cc1nc(C)c(CCN[C@@H](C)c2cc3ccccc3o2)s1 was tested, and the “% Inhibition” value was -2% and the Z score was 0.34.
For C=CCNC(=O)c1cccnc1-c1c[nH]c2c(C)cccc12, the “% Inhibition” value was -11% and the Z score was 1.05.
CCOC(=O)c1cc2n(n1)C[C@@](C)(C(=O)NCCOC)N(c1cccc(F)c1)C2=O was tested, and the “% Inhibition” value was 10% and the Z score was -1.14.
For C[C@@H](Cc1ccccc1C(F)(F)F)N(C)C(=O)c1cc(O)ccn1, the “% Inhibition” value was -13% and the Z score was 2.05.
With Cc1nsc(N2CCOCC2CC(C)O)n1 (configuration not stated) the “% Inhibition” value was 0% and the Z score was -0.05.
In the case of CCc1nc(CNS(=O)(=O)C[C@@]23CC[C@@H](CC2=O)C3(C)C)cs1, the “% Inhibition” value was -8% and the Z score was 0.82.
Cc1cccc(C[C@H](C)N2CCC(CCC(=O)N3CCOCC3)CC2)n1 was tested, and the “% Inhibition” value was -8% and the Z score was 0.72.
In the case of CN(C)c1ccnc(NC(=O)N2CCCC2CC(O)c2ccco2)n1 (configuration not stated), the “% Inhibition” value was -4% and the Z score was 0.52.
CCN1CC(C)N(C(=O)c2sccc2C)CC1C (configuration not stated) was tested, and the “% Inhibition” value was 1% and the Z score was -0.1.
With COC(=O)C1CN(C(C)c2ncc(C(C)(C)C)o2)C[C@@H](C)O1 (some centres not stated) the “% Inhibition” value was -7% and the Z score was 0.99.
With COCCn1cncc1CN1C(=O)OC[C@@H]1c1ccccc1 the “% Inhibition” value was -13% and the Z score was 2.49.
In the case of COCc1nsc(N2CCN(c3ccc(O)cc3)CC2)n1, the “% Inhibition” value was -32% and the Z score was 3.8.
For Cc1nsc2c1[C@@H](c1nc(C(C)C)cs1)CC(=O)N2, the “% Inhibition” value was -7% and the Z score was 1.12.
Cn1cc(CN(C(=O)Nc2cccnc2)C2CC2)cn1 was tested, and the “% Inhibition” value was 1% and the Z score was -0.15.
With NC(=O)c1c(NC2=NS(=O)(=O)c3ccccc32)sc2c1CCCC2 the “% Inhibition” value was -1% and the Z score was 0.07.
In the case of CCC(C)NC(=O)CC(c1cccc2c1OCO2)c1c[nH]c2ccccc12 (configuration not stated), the “% Inhibition” value was 7% and the Z score was -1.09.
For Cc1noc(C)c1S(=O)(=O)NCc1ccc(N(C)C)nc1, the “% Inhibition” value was -12% and the Z score was 1.11.
For Cc1cccc(CNC(=O)Nc2nc(-c3ccccc3)no2)n1, the “% Inhibition” value was -7% and the Z score was 1.15.
Cc1cc(-c2cc(S(=O)(=O)N3CCCCC3)c(C)s2)on1 was tested, and the “% Inhibition” value was -13% and the Z score was 1.26.
In the case of COc1ccc(S(=O)(=O)Oc2ccccc2CN(Cc2ccc(F)cc2)C(=O)C(C)C)cc1, the “% Inhibition” value was -8% and the Z score was 1.12.
CCN1CCN(C(=O)CN(C)C(=O)c2csc(Nc3cccc(Cl)c3Cl)n2)CC1 was tested, and the “% Inhibition” value was -14% and the Z score was 1.37.
For N#CC1CCN(C(=O)C[C@H]2CCCO2)CC1, the “% Inhibition” value was 5% and the Z score was -0.68.
Cc1ccc(C)c(Cn2ccnc2CN(CCN2CCOCC2)C(=O)CC(C)C)c1 was tested, and the “% Inhibition” value was -13% and the Z score was 1.36.
With Cc1ccccc1NS(=O)(=O)c1cc2n(c1)CCN(C)C2=O the “% Inhibition” value was -8% and the Z score was 1.2.
In the case of Cc1ccc(NC(=O)COc2cc(C)c(C)nn2)c(Cl)c1, the “% Inhibition” value was -8% and the Z score was 1.49.
Fc1ccc([C@@]2(c3noc(CCc4nc5ccccc5[nH]4)n3)CCOC2)cc1 was tested, and the “% Inhibition” value was 3% and the Z score was -0.55.
For CC(C)CN1CC2(CCN(C(=O)[C@H]3CCc4nn(C)c(=O)n4C3)CC2)CC1=O, the “% Inhibition” value was -1% and the Z score was 0.18.
With COc1c(C)cc(C)cc1-c1nc2c(cnn2C2CCN(C)CC2)[nH]1 the “% Inhibition” value was 2% and the Z score was -0.35.
CC[C@@H](CO)N1CCN(C2CCC(C(=O)OC(C)(C)C)CC2)CC1 (some centres not stated) was tested, and the “% Inhibition” value was -8% and the Z score was 1.57.
For COc1ccccc1C1CC1c1nc(C2CC2)no1 (configuration not stated), the “% Inhibition” value was -4% and the Z score was 0.37.
In the case of Cc1ccc(NS(=O)(=O)c2cc(-c3[nH]nc(C)c3C)sc2C)c(C)c1, the “% Inhibition” value was -14% and the Z score was 1.66.
C[C@@H](Cn1cc(Br)cn1)Nc1ccc2c(c1)COC2 was tested, and the “% Inhibition” value was 3% and the Z score was -0.36.
With Cc1nnc(CNC(C2CCCC2)C2CCCC2)o1 the “% Inhibition” value was -13% and the Z score was 1.32.
In the case of CN1CCN(C(=O)N2CCC3(CCC(=O)N(CCc4ccncc4)C3)CC2)CC1, the “% Inhibition” value was -14% and the Z score was 1.57.
For Cc1ccc(OCC(=O)NC2CCC(Oc3cnccn3)CC2)c(C)c1 (configuration not stated), the “% Inhibition” value was -3% and the Z score was 0.46.
In the case of CNC(=O)c1n[nH]c2c1[C@@H](Cc1ccccc1)CC(=O)N2, the “% Inhibition” value was -9% and the Z score was 1.17.
For CC(=O)Nc1ccc(-c2cn([C@H](c3cccnc3)C(C)C)nn2)cc1, the “% Inhibition” value was -1% and the Z score was 0.13.
CC(=O)N1CCCN(C(=O)[C@@H]2COc3ccccc32)CC1 was tested, and the “% Inhibition” value was -10% and the Z score was 0.98.
O=C(N[C@@H](N1CCCCCC1)C(Cl)(Cl)Cl)c1ccccc1Cl was tested, and the “% Inhibition” value was -3% and the Z score was 0.4.
In the case of CC(=O)Nc1c(C)nc(N2CCN(C)CC2)nc1C, the “% Inhibition” value was 2% and the Z score was -0.26.
O=C1CCc2cc(S(=O)(=O)CCC(=O)N3CC[C@H](CCOc4ccccc4F)C3)ccc2N1 was tested, and the “% Inhibition” value was -7% and the Z score was 1.27.
In the case of CC(C)c1ccc(N2CCN(C(=O)c3ccc(C(F)(F)F)cc3)[C@@H](C)C2=O)cc1, the “% Inhibition” value was 33% and the Z score was -4.48.
In the case of COCCC[C@H]1CCCCN1S(=O)(=O)c1cccc(C(=O)N2CCC2)c1, the “% Inhibition” value was 1% and the Z score was -0.17.
With Cc1cc(C)n(C)c(=O)c1C(=O)NC[C@H]1CCCO1 the “% Inhibition” value was -13% and the Z score was 1.46.
For COC1CCN(CC(=O)N2CCCCCC2)CC1, the “% Inhibition” value was -13% and the Z score was 1.31.
In the case of CC(C)c1nncn1CCNC(=O)C(C)(C)N1CCOCC1, the “% Inhibition” value was -2% and the Z score was 0.29.
In the case of CC(=O)Nc1cccc(C(=O)N2CCC[C@H]2c2ccncc2)c1, the “% Inhibition” value was 11% and the Z score was -1.24.
With O=C(Nc1ccc2oc(-c3cncc(Br)c3)nc2c1)c1ccc2c(c1)OCO2 the “% Inhibition” value was -13% and the Z score was 1.96.
In the case of CC(C)(C(=O)Nc1cc(C(F)(F)F)c[nH]c1=O)S(=O)(=O)C1CC1, the “% Inhibition” value was -5% and the Z score was 0.89.
In the case of Cc1cccc(-c2ccc(C(=O)O)n2C)c1, the “% Inhibition” value was -10% and the Z score was 1.46.
For Cc1n[nH]c(C)c1CCN1CCCN(c2nc3ccccc3s2)CC1, the “% Inhibition” value was 0% and the Z score was -0.03.
Cc1cccc(-n2nnnc2C2(Nc3ccc4c(c3)OCO4)CCCC2)c1 was tested, and the “% Inhibition” value was -4% and the Z score was 0.75.
In the case of CC(C)C[C@H]1CCCCCN1C(=O)c1[nH]c(=O)[nH]c(=O)c1N, the “% Inhibition” value was 8% and the Z score was -1.2.
For Cc1cnc(C(=O)N2CCC[C@H]2Cn2nc(C)nc2C)c(C)c1, the “% Inhibition” value was 6% and the Z score was -1.1.
For CC[C@](C)(NCCN1C(=O)NC(C)(C)C1=O)c1nccs1, the “% Inhibition” value was -4% and the Z score was 0.42.
c1cc2[nH]ncc2cc1NC1CC2CCC(C1)O2 (configuration not stated) was tested, and the “% Inhibition” value was -15% and the Z score was 2.28.
COC(=O)NCCn1nc(C(F)(F)F)c2c1CCOC2 was tested, and the “% Inhibition” value was 27% and the Z score was -3.4.
With COc1cccc(C(=O)[N-]c2c[n+](-c3ccc(C)cc3)no2)c1 the “% Inhibition” value was 1% and the Z score was -0.07.
With CC(=O)N1C(=O)N(c2ccccc2)C2C1N(c1ccccc1)C(=O)N2C(C)=O (configuration not stated) the “% Inhibition” value was -8% and the Z score was 1.2.
For CCNC(=NCc1ccc(OC)c(Cl)c1)NCC, the “% Inhibition” value was 4% and the Z score was -0.37.
In the case of Cc1nc2c(c(=O)[nH]1)NC(=O)[C@H](CC(C)C)N2, the “% Inhibition” value was 38% and the Z score was -4.9.
For O=C(O)CN(C(=O)C1CC1c1ccccc1OC(F)(F)F)C1CCOCC1 (configuration not stated), the “% Inhibition” value was -5% and the Z score was 0.76.
CCN(C(=O)Cc1c(C(=O)O)c(C)cn1C)c1cccc(Cl)c1 was tested, and the “% Inhibition” value was 0% and the Z score was -0.02.
With OC[C@@H](Cc1cccs1)Cn1ccnc1-c1cc(F)ccc1F the “% Inhibition” value was -2% and the Z score was 0.41.
In the case of C[C@@H]1CCC[C@H](C)N1C(=O)CCOCC(F)(F)C(F)F, the “% Inhibition” value was -8% and the Z score was 0.89.
CCN(Cc1ccc2ccccc2n1)C(=O)CCC1CCC(C)O1 (configuration not stated) was tested, and the “% Inhibition” value was -17% and the Z score was 1.61.
In the case of COc1cn(CC(=O)NC2CCCCC2)c(CO)cc1=O, the “% Inhibition” value was 32% and the Z score was -3.65.
In the case of CCCCN(CC(=O)N1c2ccccc2-n2cccc2[C@H]1c1ccc(Cl)cc1)C(=O)Nc1cccc(C#N)c1, the “% Inhibition” value was 3% and the Z score was -0.5.
